What all share (conditions): 50 µM; 24 h
For assay [1], the system named is HeLa VPS33A reporter cells. The experiment in a line: relative cell viability (CellMask signal) vs DMSO (fraction of DMSO); higher = less cytotoxic.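 Note: primary screen of an FDA-approved drug library in HeLa reporter cells in 96-well format, CellMask signal normalized to DMSO-treated wells set as 1, under 0.5 deemed highly cytotoxic.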
For assay [2], the system named is HeLa VPS33A R498W KI + HA-SDC1-FLAG. The experiment in a line: relative GAG core protein HA-SDC1 amount per cell number vs DMSO (fraction of DMSO); higher = more SDC1 (GAG core protein).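 Note: HA-SDC1 level read out by In-Cell Western staining with an anti-HA antibody against the N-terminal tag, screening FDA-approved library drugs.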
The test system of assay [3] is HeLa VPS33A KO + NLuc-VPS33A R498W. Briefly: relative mutant VPS33A R498W amount (NanoLuc luminescence) vs DMSO (fraction of DMSO); HeLa model of a glycosaminoglycan (GAG) storage disease; KI is knock-in and KO knock-out; SDC1 is syndecan 1; higher = higher mutant VPS33A level.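 Note: screen of an FDA-approved drug library, NanoLuc luminescence read after lysing the treated cells, taken as a measure of mutant VPS33A protein stability.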

Each structure is given as a SMILES string. Structures can show the parent of a compound that is named as a salt. The list shows a part of the results. Cut-off read from the data, not from the text of the source: active = 0.5 or less and inactive = the rest. Many values rest on one well or one pass, so single values are uncertain.

With `COC(=O)c1ccc2c(C(=Nc3ccc(N(C)C(=O)CN4CCN(C)CC4)cc3)c3ccccc3)c(O)[nH]c2c1` [Nintedanib (BIBF 1120)], the relative cell viability in assay [1] was determined as 1.44. The “relative GAG core protein HA-SDC1 amount per cell number” value in assay [2] is inactive: 1.66. In addition, in assay [3], the “relative mutant VPS33A R498W amount” value amounted to 0.791.

`CC(c1cc2ccccc2s1)N(O)C(N)=O` (centres undefined) [Zileuton]: in assay [1], the relative cell viability was found to be 1.01. Further, the “relative GAG core protein HA-SDC1 amount per cell number” value in assay [2] is inactive: 1.11. For the same compound, the “relative mutant VPS33A R498W amount” value in assay [3] stood at 1.15.

In turn, `C=CC(C)(O)CCC=C(C)C` (centres undefined) [Linalool] showed a relative cell viability in assay [1] of 0.977. In addition, the “relative GAG core protein HA-SDC1 amount per cell number” value in assay [2] is inactive: 0.846. For the same compound, the “relative mutant VPS33A R498W amount” value in assay [3] is 1.32.

In the case of `O=c1c(O[C@@H]2O[C@H](CO)[C@H](O)[C@H](O)[C@H]2O)c(-c2ccc(O)c(O)c2)oc2cc(O)cc(O)c12` [Hyperoside], in assay [1], the relative cell viability worked out at 1.18. In assay [2], the “relative GAG core protein HA-SDC1 amount per cell number” value is inactive: 0.856. For the same compound, the “relative mutant VPS33A R498W amount” value in assay [3] amounted to 1.2.

Take `CCn1cc(C(=O)O)c(=O)c2cc(F)c(N3CCN(C)CC3)cc21` [Pefloxacin Mesylate]: in assay [1], the relative cell viability came out at 0.98. Further, the “relative GAG core protein HA-SDC1 amount per cell number” value in assay [2] is inactive: 0.977. Besides, the “relative mutant VPS33A R498W amount” value in assay [3] was determined as 1.06.

On to `C#Cc1cccc(Nc2ncnc3cc4c(cc23)OCCOCCOCCO4)c1` [Icotinib], for which the relative cell viability in assay [1] was determined as 1.22. In addition, the “relative GAG core protein HA-SDC1 amount per cell number” value in assay [2] is inactive: 1.25. In addition, the “relative mutant VPS33A R498W amount” value in assay [3] was 1.32.

Compound `CCCc1nn(C)c2c(=O)[nH]c(-c3cc(S(=O)(=O)N4CCN(C)CC4)ccc3OCC)nc12` [Sildenafil mesylate] had a relative cell viability in assay [1] of 1.04. In addition, the “relative GAG core protein HA-SDC1 amount per cell number” value in assay [2] is inactive: 0.908. Besides, the “relative mutant VPS33A R498W amount” value in assay [3] amounted to 0.654.

With `CCN[C@H]1C[C@H](C)S(=O)(=O)c2sc(S(N)(=O)=O)cc21` [Dorzolamide HCl], the relative cell viability in assay [1] was 1.07. Moreover, the “relative GAG core protein HA-SDC1 amount per cell number” value in assay [2] was inactive: 1.27. Further, the “relative mutant VPS33A R498W amount” value in assay [3] is 1.05.

Take `C[C@H](C(=O)O)c1ccc(-c2ccccc2)c(F)c1` [(S)-Flurbiprofen]: in assay [1], the relative cell viability amounted to 1.01. For the same compound, the “relative GAG core protein HA-SDC1 amount per cell number” value in assay [2] was inactive: 0.779. The “relative mutant VPS33A R498W amount” value in assay [3] was 1.2.

Regarding `Cc1c(-c2cnccn2)ssc1=S` [Oltipraz], the relative cell viability in assay [1] was 1.16. Besides, the “relative GAG core protein HA-SDC1 amount per cell number” value in assay [2] was inactive: 0.856. The “relative mutant VPS33A R498W amount” value in assay [3] amounted to 0.72.

In assay [1], `Cn1ccnc1S` [Methimazole] showed a relative cell viability of 1.15. Also, the “relative GAG core protein HA-SDC1 amount per cell number” value in assay [2] is inactive: 1.15. Further, the “relative mutant VPS33A R498W amount” value in assay [3] amounted to 0.895.

Regarding `CO[C@H]1C[C@@H]2CC[C@@H](C)[C@@](O)(O2)C(=O)C(=O)N2CCCC[C@H]2C(=O)O[C@H]([C@H](C)C[C@@H]2CC[C@H](n3cnnn3)[C@H](OC)C2)CC(=O)[C@H](C)/C=C(\C)[C@@H](O)[C@@H](OC)C(=O)[C@H](C)C[C@H](C)/C=C/C=C/C=C/1C` [Zotarolimus(ABT-578)], in assay [1], the relative cell viability came out at 1.16. For the same compound, the “relative GAG core protein HA-SDC1 amount per cell number” value in assay [2] is active: 0.481. Moreover, the “relative mutant VPS33A R498W amount” value in assay [3] was determined as 0.464.

`Cc1cc(C(C)(C)C)c(O)c(C(C)(C)C)c1`: the relative cell viability in assay [1] is 1.07. The “relative GAG core protein HA-SDC1 amount per cell number” value in assay [2] is inactive: 0.756. Further, the “relative mutant VPS33A R498W amount” value in assay [3] was 0.829.

`CC(=O)N[C@H]1[C@H]([C@H](O)[C@H](O)CO)OC(C(=O)O)=C[C@@H]1NC(=N)N` [Zanamivir] had a relative cell viability in assay [1] of 0.984. The “relative GAG core protein HA-SDC1 amount per cell number” value in assay [2] is inactive: 0.961. For the same compound, the “relative mutant VPS33A R498W amount” value in assay [3] worked out at 1.18.

With `NC(=O)c1ccc[n+]([C@@H]2O[C@H](COP(=O)([O-])OP(=O)(O)OC[C@H]3O[C@@H](n4cnc5c(N)ncnc54)[C@H](O)[C@@H]3O)[C@@H](O)[C@H]2O)c1`, the relative cell viability in assay [1] was found to be 0.935. The “relative GAG core protein HA-SDC1 amount per cell number” value in assay [2] is inactive: 0.922. In addition, the “relative mutant VPS33A R498W amount” value in assay [3] was 0.776.

As for `COCC(=O)Nc1c(I)c(C(=O)NCC(O)CO)c(I)c(C(=O)N(C)CC(O)CO)c1I` (centres undefined) [Iopromide], the relative cell viability in assay [1] came out at 1.03. Besides, in assay [2], the “relative GAG core protein HA-SDC1 amount per cell number” value is inactive: 0.907. For the same compound, the “relative mutant VPS33A R498W amount” value in assay [3] came to 1.72.

Turning to `CC1(C)NC(=O)N(c2ccc([N+](=O)[O-])c(C(F)(F)F)c2)C1=O` [Nilutamide], in assay [1], the relative cell viability was 1.12. Moreover, the “relative GAG core protein HA-SDC1 amount per cell number” value in assay [2] is inactive: 0.634. For the same compound, the “relative mutant VPS33A R498W amount” value in assay [3] turned out to be 1.08.

For `c1cnc2cc3c(cc2n1)[C@@H]1CNC[C@H]3C1` [Varenicline Tartrate], the relative cell viability in assay [1] worked out at 0.961. The “relative GAG core protein HA-SDC1 amount per cell number” value in assay [2] was inactive: 1.23. For the same compound, the “relative mutant VPS33A R498W amount” value in assay [3] turned out to be 1.35.

The values are drawn from the supplement of paper PMC12355420.
